Experimental data published in PubChem BioAssay AID1963576 (National Center for Advancing Translational Sciences (NCATS), 2024).
In all, about 46,000 compounds went through this assay and about 60 (0.1%) were called active. Inconclusive results (about 3%) are left out. Calls come from the whole dose curve; as a rule, active = well fitted inhibition curve with a large enough effect; inconclusive = small, poorly fitted or top-dose-only effect; inactive = no such curve, though single readings can be large or run the other way. The list shows a part of the results.

Assay: Primary qHTS assay for Inhibitors of ovarian cancer metastasis using an organotypic tumor microenvironment (TME) model.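 For activity change, negative = inhibition: plate controls were DMSO wells for no effect and tomatine positive control wells for full effect.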 Note: nearly all actives have a fitted effect of over 65% in size.
Details: SKOV3ip1-GFP adhesion/invasion on 3D omental model, fluorescence; series mostly up to 45.8 µM; activity change, negative = inhibition: at the top concentration
Outline: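 A 3D layer of primary human omental fibroblasts, mesothelial cells, fibronectin and collagen I, grown 48 hr, received SKOV3ip1-GFP cells in serum-free medium plus compounds at 0.36-46 umol/L. After 2 hr RT and 16 hr 37 C, fixed adherent GFP cells were counted; normalized to DMSO and tomatine.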

| Structure (SMILES) | activity change, negative = inhibition | outcome |
| --- | --- | --- |
| COC(=O)Cn1c(=O)c2cccn2c2ccc(F)cc21 | inactive: -2.84% |  |
| COc1cc(NC(=O)c2cc(C3CC3)nc3c2c(C)nn3-c2ccccc2)cc(OC)c1 | inactive: 1.8% |  |
| Cc1cccc(N(C)c2nc3ccccc3c3nnc(C)n23)c1 | inactive: -22.5% |  |
| CCOc1ccc(C(=O)Cn2c(=O)n3nc(CCn4nc(C)cc4C)nc3c3cc(OC)c(OC)cc32)cc1 | inactive: -2.81% |  |
| Cc1ccccc1NC(=O)CC(NCc1cccnc1)C(=O)O (stereo not drawn) | inactive: -21.9% |  |
| Cc1cc(C)cc(NC(=O)Cn2c(-c3cncs3)nc3ccccc32)c1 |  | inactive |
| CCOc1ccc(-c2nc3c(c(SCC(=O)Nc4ccccc4C)n2)Cc2ccccc2O3)cc1 | inactive: 3.37% |  |
| Cc1cc(C)n(-c2nc3ccccc3nc2Nc2ccc(N(C)C)cc2)n1 | inactive: 3.76% |  |
| CCOC(=O)c1ccc(NC(=O)c2cnc3c(-c4ccc(F)cc4)c(C)nn3c2C)cc1 | inactive: 8.56% |  |
| COc1ccc(-n2nc(C(=O)Nc3ccccn3)c3c4ccccc4n(C)c3c2=O)cc1 |  | inactive |
| COc1ccccc1OC(C)C(=O)Nc1cccc(-c2nc3ccccc3s2)c1 (stereo not drawn) |  | inactive |
| Cc1cc(C)c(Cn2c3ccccc3c3cnn(CC(=O)NCc4cccs4)c(=O)c32)c(C)c1 | inactive: 16.6% |  |
| Cc1ccccc1Cn1nnc2c(=O)[nH]c(C3CCN(C(=O)c4ccc(F)cc4)CC3)nc21 | inactive: 9.8% |  |
| Cc1ccc(Cl)cc1NC(=O)C1CCN(c2nnc(C)c3c(C)n(-c4ccccc4)nc23)CC1 |  | inactive |
| CCc1ccc(CNC(=O)c2cnc3sc(N4CCCC4)nn3c2=O)cc1 | inactive: -6.26% |  |
| Cc1ccccc1CNC(=O)c1ccc2c(c1)c(C)c(C)n2C |  | inactive |
| CN(C)c1ccc(CNC(=O)c2ccc(Cn3c(SCc4ccccc4)nc4cccnc43)cc2)cc1 | inactive: -0.738% |  |
| COc1ccc(CNC(=O)c2ccc(-c3nc(CSc4ccccc4)c(C)o3)cc2)cc1OC | inactive: -5.43% |  |
| COc1ccc(CNC(=O)CSCc2nc(-c3ccccc3C)oc2C)cc1 | inactive: 1.94% |  |
| CCCc1cc(=O)[nH]c(SCC(=O)N2CCN(c3ccccc3)CC2)n1 |  | inactive |
| CCc1cccc(NC(=O)COC(=O)c2cn(CC)c3nc(C)ccc3c2=O)c1 | inactive: 8.83% |  |
| COc1ccc(-c2ccc3c(N)c(C(=O)c4ccc(OC)c(OC)c4)sc3n2)cc1 | inactive: -5.32% |  |
| CCC(C)NC(=O)CCCN1C(=O)CCn2nc(-c3cccn3C)cc21 (stereo not drawn) | inactive: 3.29% |  |
| CCc1ccc(-n2c(=O)c3c4c(sc3n(CC(=O)c3ccc(F)cc3)c2=O)CCC4)cc1 | inactive: -20.9% |  |

| Structure (SMILES) | activity change, negative = inhibition | outcome |
| --- | --- | --- |
| COc1ccccc1C(=O)Nc1ccccc1OCc1cc(=O)n2c(C)csc2n1 | inactive: 7.69% |  |
| CC(C)c1nn2c(=O)cc(COC(=O)c3ccc(NC(=O)COc4ccccc4)cc3)nc2s1 | inactive: 0.594% |  |
| COc1ccc(-c2cc(-c3ccccc3)c(C#N)c(SCC(O)CS(=O)(=O)Cc3ccc(Cl)cc3)n2)cc1 (stereo not drawn) | inactive: -1.88% |  |
| O=C(CS(=O)(=O)c1cccc2nsnc12)N1CCN(c2cccc(Cl)c2)CC1 | inactive: -0.239% |  |
| CCOC(=O)c1sc2cccc(F)c2c1S(=O)(=O)NCc1ccccc1Cl |  | inactive |
| CCCN1CCN(c2ncnc3sc(C(=O)Nc4ccc(C(C)C)cc4)c(C)c23)CC1 |  | inactive |
| CC(=O)Nc1nonc1-c1nnc(SCC(=O)Nc2ccc(C)cc2)n1-c1ccccc1 | inactive: 18.5% |  |
| COC(=O)c1ccccc1NC(=O)c1cc(-c2ccccc2O)no1 | inactive: 7.34% |  |
| O=S(=O)(c1ccc(-c2cc(C(F)(F)F)on2)s1)N1CCN(c2ccccc2F)CC1 |  | inactive |
| COc1ccc(NC(=O)CN2C(=O)CCn3nc(-c4cccn4C)cc32)cc1Cl | inactive: -4.97% |  |
| Cc1ccc(NC(=O)CN2C(=O)c3ccccc3Sc3ccc(C(=O)N4CCOCC4)cc32)cc1F | inactive: -32.7% |  |
| Cc1cccc(NC(=O)Cn2nnc(-c3nc(-c4ccncc4)no3)c2N)c1 | inactive: 9.32% |  |
| Cc1ccc(C(c2sc3nc(-c4ccco4)nn3c2O)N2CCCC2)cc1 (stereo not drawn) | inactive: 1.08% |  |
| Cc1ccc(N(CC(=O)NCCc2ccc(Cl)cc2)S(=O)(=O)c2c(C)noc2C)cc1 | inactive: 4.61% |  |
| COc1cc(SC)ccc1C(=O)Nc1ccc(S(=O)(=O)Nc2nccc(C)n2)cc1 | inactive: 6.52% |  |
| COc1cccc(N2CCN(C(=O)c3ccc(C)c(NC(=O)c4nsc5ccccc45)c3)CC2)c1 | inactive: 2.76% |  |
| CCN(CC)CCNC(=O)C1CCN(C(=O)c2cnn(-c3ccccc3)c2-n2cccc2)CC1 | inactive: 3.28% |  |
| O=C(NCc1ccccc1)C1CCN(S(=O)(=O)Cc2ccccc2)CC1 | inactive: 7.69% |  |
| Cc1ccc(-n2c(SCc3ccccc3F)nc3[nH]ncc3c2=O)cc1Cl | inactive: 4.74% |  |
| CNC[C@@H](O)[C@@H](O)[C@H](O)[C@H](O)CO | inactive: 16.1% |  |
| CC(=O)NCCNC(=O)CCCn1c(=O)[nH]c2ccsc2c1=O | inactive: 21.5% |  |
| CCCCOc1ccc(C2c3c(oc4ccc(C)cc4c3=O)C(=O)N2CCCN(C)C)cc1OCC (stereo not drawn) | inactive: 4.09% |  |
| Cc1ccc2nc(NC(=O)CSc3[nH]c(=O)ncc3C)sc2c1 | inactive: 20.9% |  |
| Cc1ccc(NC(=O)CSc2nc(=O)cc(N)n2-c2ccccc2)cc1 | inactive: 3.41% |  |
